In the supplement of paper PMC10600219:
Counter-ions that a name gives are not always drawn. Over roughly 2,800 compounds, “cell viability relative to vehicle” has its median near 1.1; the lowest 2% begin near 0.19. This is one part of the list.

Tested on: NCI-H2228 parental
Assay: cell viability relative to vehicle (fraction of vehicle); NCI-H2228 is an ALK-positive lung cancer line and DTP means drug-tolerant persister; higher = less growth inhibition
Settings: 100 nM; treatment time 6 days
How it was run: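 Parental NCI-H2228 cells and drug-tolerant persister cells (made with 1000 nM of a targeted drug for 13 days) were seeded in 384-well plates. The next day, the 3114-agent TargetMol anti-cancer compound library was added at 100 nM, with DMSO as vehicle. After 6 days, ATP was read with the CellTiter-Glo 3D Cell Viability Assay. Each value is cell viability relative to vehicle-treated cells.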

| SMILES | cell viability |
| --- | --- |
| CC1=C(/C=C/C(C)=C/C=C/C(C)=C/C(=O)Nc2ccc(O)cc2)C(C)(C)CCC1=O [4-Oxofenretinide] | 1.11 |
| c1cc(-c2cnn3cc(-c4ccc(OCCN5CCCCC5)cc4)cnc23)ccn1 [Dorsomorphin dihydrochloride] | 1.08 |
| c1cc(-c2cnn3cc(-c4ccc(OCCN5CCCCC5)cc4)cnc23)ccn1 [Dorsomorphin] | 0.999 |
| O=C1[C@H](CC[C@H](O)c2ccc(F)cc2)[C@@H](c2ccc(O)cc2)N1c1ccc(F)cc1 [Ezetimibe] | 1.09 |
| CC(O)(P(=O)(O)O)P(=O)(O)O [Etidronate] | 1.13 |
| CC(O)(P(=O)(O)O)P(=O)(O)O [Sodium etidronate] | 1.06 |
| CC(C)c1ccc(NC(=O)c2cccs2)c(-c2nc3ccccc3[nH]c2=O)c1 | 1.19 |
| O=C(O)CCCC[C@@H]1CCSS1 (racemic) [Thioctic acid] | 0.989 |
| Nc1cc(F)ccc1NC(=O)/C=C/c1cnn(C/C=C/c2ccccc2)c1 | 0.981 |
| O=C(Nc1nccs1)C(c1cc(F)ccc1O)N1Cc2ccccc2C1=O (stereo unspecified) | 0.913 |
| N[C@@H](Cc1ccc(O)cc1)C(=O)O [Tyrosine] | 1.21 |
| CN(Cc1cnc2nc(N)nc(N)c2n1)c1ccc(C(=O)N[C@@H](CCC(=O)O)C(=O)O)cc1 [Methotrexate] | 0.375 |
| CCCCCCCCCCCCCCCCOP(=O)([O-])OCC[N+](C)(C)C [Miltefosine] | 1.14 |
| COc1cc(C(C)=O)ccc1O [Acetovanillone] | 1.19 |
| CC/C(=C(/c1ccc(/C=C/C(=O)O)cc1)c1ccc2[nH]ncc2c1)c1ccc(F)cc1Cl | 1.06 |
| CC(=O)OCC1=CO[C@@H](OC(=O)CC(C)C)[C@H]2C1=C[C@H](OC(=O)CC(C)C)[C@]21CO1 [Valepotriate] | 1.02 |
| C=CC(C)(C)c1cc(/C=C/C(=O)c2ccc(O)cc2)c(OC)cc1O [Licochalcone A] | 1.1 |
| C[C@]12CC[C@@H]3c4ccc(OS(=O)(=O)O)cc4CC[C@H]3[C@@H]1CCC2=O [Estropipate] | 1.11 |
| COC(=O)c1ccc([C@H]2c3[nH]c4ccccc4c3C[C@H](C(=O)OC)N2C(=O)CCl)cc1 | 0.214 |
| Cc1ccc(S(=O)(=O)NC(=O)NN2CCCCCC2)cc1 [Tolazamide] | 0.892 |
| CN1CCN(c2c(F)cc3c(=O)c(C(=O)O)cn4c3c2OCN4C)CC1 [Marbofloxacin] | 1.16 |

| SMILES | cell viability |
| --- | --- |
| CCOC(=O)c1ccc(N)cc1 [Benzocaine] | 0.878 |
| CC(CCc1ccccn1)(CCc1ccccn1)C(=O)c1ccccc1 [JAK2 Inhibitor V] | 1.08 |
| C[C@H]1[C@H](C)CC[C@]2(C(=O)O)CC[C@]3(C)C(=CC[C@@H]4[C@@]5(C)C[C@@H](O)[C@H](O)[C@@](C)(CO)[C@@H]5CC[C@]43C)[C@H]12 [Asiatic acid] | 0.941 |
| CCN(CC)CCOC(=O)C(c1ccccc1)c1ccccc1 [Adiphenine hydrochloride] | 1.17 |
| OC(CCCN1CCCCC1)(c1ccccc1)c1ccccc1 [Diphenidol hydrochloride] | 1.17 |
| CCCCCCCCCCCCc1ccc(S(=O)(=O)Nc2nncs2)cc1 | 1.01 |
| Oc1c(F)cc(-c2cnccc2-c2ccc(N3CCOCC3)cc2)cc1F | 0.99 |
| CCCCCCCc1ccc(CCc2cccc(O)c2C(=O)O)cc1 | 1.06 |
| O=c1cc(-c2ccc(O)cc2)oc2c([C@@H]3O[C@H](CO)[C@@H](O)[C@H](O)[C@H]3O)c(O)cc(O)c12 [Vitexin] | 1.06 |
| CCN(c1cc(C#CCN2CCOCC2)cc(C(=O)NCc2c(C)cc(C)[nH]c2=O)c1C)[C@H]1CC[C@H](N(C)CCOC)CC1 | 1.2 |
| Cc1noc(C)c1-c1ccc(-c2cc(C(N)=O)c(NC(N)=O)s2)c(O[C@H]2CCNC2)c1 | 1.05 |
| Cc1ccc([N+](=O)[O-])cc1S(=O)(=O)N(C)/N=C/c1cnc2ccc(Br)cn12 | 0.165 |
| Cc1ccc([N+](=O)[O-])cc1S(=O)(=O)N(C)/N=C/c1cnc2ccc(Br)cn12 [PIK-75  hydrochloride] | 0.153 |
| Cc1cc(C)cc(Oc2ccc(CNC(=O)[C@H](C)N)cc2C)c1 | 0.971 |
| CC(=O)CC/C=C(\C)CC/C=C(\C)CC/C=C(\C)CCC=C(C)C [Teprenone] | 1.01 |
| COc1ccc(-c2ccc3c(N4CCOCC4)nc(N4C[C@@H](C)O[C@@H](C)C4)nc3n2)cc1CO | 0.82 |
| CC(C)(C)S(=O)(=O)c1ccc2nccc(Nc3n[nH]c4ccc(F)cc34)c2c1 | 1.01 |
| COc1cc(OC)c(/C=C/S(=O)(=O)Cc2ccc(OC)c(NCC(=O)O)c2)c(OC)c1 | 0.416 |
| CC/C(=C(/CC)c1ccc(O)cc1)c1ccc(O)cc1 [Diethylstilbestrol] | 0.975 |
| CC1=C(/C=C/C(C)=C/C=C/C(C)=C\C(=O)O)C(C)(C)CCC1 [Isotretinoin] | 0.766 |
| CSc1ccc2c(c1)N(CCC1CCCCN1C)c1ccccc1S2 (stereo unspecified) [Thioridazine hydrochloride] | 1.14 |

| SMILES | cell viability |
| --- | --- |
| Cc1cc(C=C2SC(=O)N(c3ccccc3)C2=O)c(C)n1-c1cccnc1 | 0.982 |
| Cc1cc(-c2ccccc2)nnc1NCCN1CCOCC1 [Minaprine dihydrochloride] | 1.14 |
| NC(N)=Nc1nc(CSCC/C(N)=N/S(N)(=O)=O)cs1 [Famotidine] | 1.08 |
| COc1cc(N2CCC(N3CCN(C)CC3)CC2)ccc1Nc1ncnc(Nc2ccccc2S(=O)(=O)C(C)C)n1 | 0.64 |
| CCN(CCO)CCCC(C)Nc1ccnc2cc(Cl)ccc12 (stereo unspecified) [Hydroxychloroquine sulfate] | 1.21 |
| Cc1nc(Nc2ncc(C(=O)Nc3c(C)cccc3Cl)s2)cc(N2CCN(CCO)CC2)n1 [Dasatinib monohydrate] | 0.77 |
| Cc1nc(Nc2ncc(C(=O)Nc3c(C)cccc3Cl)s2)cc(N2CCN(CCO)CC2)n1 [Dasatinib] | 0.872 |
| CCN1CCN(Cc2ccc(-c3cc4c(N[C@H](C)c5ccccc5)ncnc4[nH]3)cc2)CC1 | 1.04 |
| Cn1cc(-c2cc(Oc3cc(F)c(NC(=O)C4(C(=O)Nc5ccccc5)CC4)cc3F)ccn2)cn1 | 1.09 |
| CC(C)c1ccc2c(c1)c(SC(C)(C)C)c(CC(C)(C)C(=O)O)n2Cc1ccc(Cl)cc1 | 0.992 |
| COc1cc(O)c2c(=O)cc(-c3ccc(O)cc3)oc2c1 [Genkwanin] | 1.06 |
| Cc1nc(-c2ccc(OCC(C)C)c(C#N)c2)sc1C(=O)O [Febuxostat] | 1.15 |
| CC(=O)[C@H]1CC[C@H]2[C@@H]3CC=C4C[C@@H](O)CC[C@]4(C)[C@H]3CC[C@]12C [Pregnenolone] | 1.24 |
| CN(C)c1ccc(C(=C2C=CC(=[N+](C)C)C=C2)c2ccc(N(C)C)cc2)cc1 [Crystal Violet] | 0.714 |
| CC(C(=O)O)c1ccc2c(c1)CC(=O)c1ccccc1S2 (stereo unspecified) [Zaltoprofen] | 1.11 |
| C=C1/C(=C\C=C2/CCC[C@]3(C)[C@@H]([C@H](C)/C=C/[C@H](C)C(C)C)CC[C@@H]23)C[C@@H](O)C[C@@H]1O [Doxercalciferol] | 0.887 |
| Cc1ccc2c(=O)c3cccc(CC(=O)O)c3oc2c1C | 1.19 |
| CC(C)(C)c1ccc(C(O)CCCN2CCC(C(O)(c3ccccc3)c3ccccc3)CC2)cc1 (stereo unspecified) [Terfenadine] | 1.06 |
| CC(COc1ccccc1)NC(C)C(O)c1ccc(O)cc1 (stereo unspecified) [Isoxsuprine hydrochloride] | 0.983 |
| O=C1Nc2ccccc2/C1=C/c1ccc(F)cc1 | 1.05 |
| CCOC(=O)c1[nH]c2cc(Cl)ccc2c1C(C(=O)NC(C)(C)C)N(C=O)Cc1ccc(Cl)cc1 (stereo unspecified) | 1.02 |

| SMILES | cell viability |
| --- | --- |
| COC1CCN(C(=O)c2cc(Cc3n[nH]c(=O)c4ccccc34)ccc2F)CC1 | 0.928 |
| COc1ccc(C[C@@H]2c3cc(Oc4cc(C[C@@H]5c6cc(OC)c(OC)cc6CCN5C)ccc4O)c(OC)cc3CCN2C)cc1 [Neferine] | 1.18 |
| C=CC(=O)Nc1ccc(CN2C(=O)N(c3cc(OC)cc(OC)c3)Cc3cnc(Nc4ccc(N5CCN(C)CC5)cc4)nc32)cc1 | 0.858 |
| Cn1cc(-c2ccncc2)c(-c2ccc(OCc3ccc4ccccc4n3)cc2)n1 | 1.1 |
| O=C(O)[C@H]1O[C@@H](Oc2cc3oc(-c4ccccc4)cc(=O)c3c(O)c2O)[C@H](O)[C@@H](O)[C@@H]1O [Baicalin] | 1.02 |
| Nc1ccc(S(=O)(=O)Nc2ccccn2)cc1 [Sulfapyridine] | 1.15 |
| Nc1ccn([C@@H]2O[C@H](CO)[C@@H](O)[C@@H]2O)c(=O)n1 [Cytarabine] | 0.12 |
| Nc1ncnc2c1ncn2C1CCCO1 (stereo unspecified) | 1.06 |
| Cc1cc(C)c(S(=O)(=O)n2cc(C)cc2C)c(C)c1 | 1.13 |
| COc1ccnc(C[S+]([O-])c2nc3cc(OC(F)F)ccc3[nH]2)c1OC (stereo unspecified) [Pantoprazole Sodium Hydrate] | 1.11 |
| COc1ccnc(C[S+]([O-])c2nc3cc(OC(F)F)ccc3[nH]2)c1OC (stereo unspecified) [Pantoprazole sodium] | 1.09 |
| Cc1[nH]c2ccccc2c1CCNCc1ccc(/C=C/C(=O)NO)cc1 [Panobinostat] | 0.094 |
| Cc1nc(-c2cccnc2)sc1C(=O)Nc1ccccc1-c1cn2c(CN3CCOCC3)csc2n1 | 1.21 |
| O=c1ccc2ccccc2o1 [Coumarin] | 1.14 |
| O=C(O)c1c[nH]c2cc(Cl)c(-c3ccc(C4(O)CCC4)cc3)cc12 | 1.09 |
| Nc1ccc(C(=O)Nc2cccc(-c3nc(N4CCOCC4)c4oc5ncccc5c4n3)c2)cn1 | 1.15 |
| CN(C)CCCN1c2ccccc2Sc2ccc(Cl)cc21 [Chlorpromazine hydrochloride] | 1.26 |
| CC(=O)N1CCC2(CC1)c1cc(C#C[C@H]3O[C@H](CO)[C@@H](O)[C@H](O)[C@@H]3O)ccc1-c1ccc(C#C[C@H]3O[C@H](CO)[C@@H](O)[C@H](O)[C@@H]3O)cc12 [Antibiotic-202] | 1.08 |
